Screen size: about 300,000 compounds; about 22,000 (7.3%) were called active. The shares of active, inactive and inconclusive entries below differ from those in the screen. No stated cut-off is given here; in the data, active means activity score below about -60%; inconclusive means mostly about -28% to -61%; inactive means positive scores.
Assay: Activators via SNCA 5'UTR binding, MLPCN (AID 1814)
Conditions: alpha-synuclein 5'UTR reporter, activators screen; hits give low values; tested at 7.5 µM
For `O=C(COc1ccccc1Cl)Nc1ccccc1C(=O)N1CCCCC1`, the activity score was inconclusive: -51.4%. In the case of `CCCCc1nc2cc(C(=O)N3CCCC3)ccc2o1`, the activity score is reported as active: -89.7%. For `COc1ccccc1C(=O)NCCSCc1c(F)cccc1Cl`, the activity score was inconclusive: -59.6%. In the case of `COc1ccc2nc(N(Cc3ccccc3)C(=O)CCNC(C)=O)sc2c1`, the activity score is reported as inconclusive: -47%. For `Cc1cccc(/C=C/c2nc3ccccc3c(=O)[nH]2)c1`, the activity score was active: -93.7%. For `O=C(/C=C/c1ccc(Cl)cc1)NC1CCS(=O)(=O)C1` (configuration not stated), the activity score was inconclusive: -41.5%. For `Cc1ccc(NC(=O)CSc2ncccn2)c([N+](=O)[O-])c1`, the activity score was inconclusive: -42.7%. With `CCOc1ccc(C2c3c(oc4ccccc4c3=O)C(=O)N2CCCN2CCOCC2)cc1` (configuration not stated) the activity score was inconclusive: -48.3%. For `CC(C)=CC(=O)Nc1ccc(OCc2ccccc2)cc1`, the activity score was inconclusive: -54.6%. For `Cc1ccc(C(C)C)c(OCc2ccc(C(=O)N/N=C/c3cccc(O)c3O)cc2)c1`, the activity score was inactive: 108%. In the case of `O=C(NC1CCCCC1)c1ccc2c(c1)OCCO2`, the activity score is reported as active: -82.4%. With `CCO[C@@H]1OC(C(=O)Nc2ccccc2)=C[C@H](c2coc3ccccc3c2=O)[C@H]1CCCO` the activity score was inactive: 50.1%. In the case of `COc1ccccc1C(CCNCc1ccc(N(C)C)cc1)c1ccc(OC(C)C)cc1` (configuration not stated), the activity score is reported as inactive: 135%. For `Cc1ccc(NC(=O)Cc2nc(CCl)cs2)cc1`, the activity score was inconclusive: -55.2%. For `O=C(OCn1ncc(Br)c(Br)c1=O)c1c(F)cccc1F`, the activity score was inactive: 60.6%. With `O=C1C(=C2SCCCS2)CC/C1=C\c1ccc(F)cc1` the activity score was inactive: 119%. With `COc1ccc(C(C[N+](=O)[O-])c2c(-c3ccccc3)cc3ccccn23)cc1` (configuration not stated) the activity score was inconclusive: -51.4%. In the case of `CSc1nc2ccccc2n1CC(=O)Nc1c(C)cccc1C`, the activity score is reported as inconclusive: -54.4%. With `CC(C)(C)CC(=O)Nc1nnc(-c2cccs2)s1` the activity score was active: -213%. In the case of `Cc1cc(C)c2c(N)c(C(=O)NCc3ccco3)sc2n1`, the activity score is reported as inconclusive: -53.1%. For `C/C(=N/NC(=O)c1ccc(Br)s1)c1cccnc1`, the activity score was inconclusive: -50.1%. For `Brc1ccccc1-n1nnc(-c2ccnc3ccccc23)n1`, the activity score was inconclusive: -48.3%. With `Cn1nc(CC(=O)Nc2ccc(N3CCN(C(=O)OC(C)(C)C)CC3)cc2)c2ccccc2c1=O` the activity score was inactive: 77.4%. For `Cc1ccc(Cn2ccc(NC(=O)c3cc(C)on3)n2)cc1`, the activity score was inconclusive: -36%. For `O=C(Oc1c(-c2ccccc2)c(=O)n2c3c(cccc13)CC2)c1cccc([N+](=O)[O-])c1`, the activity score was inactive: 77.3%. With `COc1ccc(NC(=O)N2CCn3c2nc2ccccc23)cc1` the activity score was active: -63.9%. In the case of `COc1ccc2cc(-c3ccn[nH]3)ccc2c1`, the activity score is reported as active: -124%. For `CCOC(=O)C(=CNc1nc(-c2ccc3ccccc3c2)cs1)C(=O)OCC`, the activity score was inconclusive: -54.9%. In the case of `Cc1cccc2sc(N(CCCN(C)C)C(=O)CCc3ccccc3)nc12`, the activity score is reported as inactive: 62.2%. For `Cc1ccc(C(=O)Cn2nnc3ccccc32)cc1[N+](=O)[O-]`, the activity score was inconclusive: -53.5%. With `COc1ccc(/C=N/NC(=O)c2cccnc2)cc1Cn1nc([N+](=O)[O-])c(Br)c1C` the activity score was inconclusive: -58.4%. For `Cc1ccc2[nH]c(=O)c(C3C(C#N)=C(N)Oc4c3ccc3cccnc43)cc2c1` (configuration not stated), the activity score was inactive: 75.3%. With `C(=N\Nc1nc(Nc2ccccc2)nc(N2CCCCC2)n1)/c1ccco1` the activity score was inconclusive: -81.3%. For `Cc1ccc(-n2c(-c3ccc(Br)cc3)c[n+]3c2CCc2ccc4cccnc4c2-3)cc1`, the activity score was inactive: 85.9%. For `COc1cccc2[nH]c3c(N4CCCC(C)C4)ncnc3c12` (configuration not stated), the activity score was active: -143%. In the case of `Cc1cc(NC(=O)CSc2nnc(-c3ccccc3)o2)no1`, the activity score is reported as inconclusive: -54.1%. With `CCN1CCN(Cc2ccc(NC(=O)c3ccc(C)c(/C=C/c4cnc(Nc5cc(N6CCNCC6)nc(C)n5)cn4)c3)cc2C(F)(F)F)CC1` the activity score was inactive: 110%. For `CCOC(=O)c1ccc(N=Cc2nc3ccccc3n2C)cc1`, the activity score was inconclusive: -49.7%. In the case of `N#CC(C#N)=C(Nc1ccc(F)cc1)SCc1cccc(Br)c1`, the activity score is reported as inactive: 48.1%. In the case of `O=C(CN1C(=O)c2ccccc2S1(=O)=O)c1cccc(Br)c1`, the activity score is reported as inactive: 84.2%. With `CCOc1cccc2sc(N(CCCN(C)C)C(=O)c3ccc(S(=O)(=O)N(CC)Cc4ccccc4)cc3)nc12` the activity score was inactive: 70.8%. For `CCCCCCCCn1ccc(=N)cc1`, the activity score was inactive: 61.9%. For `COC(=O)C[C@](O)(CCCC(C)(C)O)C(=O)O[C@@H]1C(OC)=C[C@]23CCCN2CCc2cc4c(cc2[C@H]13)OCO4`, the activity score was inactive: 127%. In the case of `CCOC(=O)c1c(C)c(C(=O)O)n(C)c1C`, the activity score is reported as inactive: 32.2%. In the case of `CCCS(=O)(=O)c1cnc(C2COc3ccccc3O2)nc1N` (configuration not stated), the activity score is reported as inactive: 67.8%. With `Cc1ccc(O)c(NC(=O)CSc2n[nH]c(C)c2[N+](=O)[O-])c1` the activity score was inconclusive: -44.6%. For `CNC(=S)N/N=C/c1cccc(OCc2ccccc2F)c1`, the activity score was inconclusive: -59.7%. With `Cc1oc2c(c1C(=O)N1CCOCC1)C(=O)c1ccccc1C2=O` the activity score was inactive: 101%. With `N#Cc1c(-c2ccccc2Cl)noc1/C=C/Nc1ccc(C(=O)O)cc1` the activity score was inconclusive: -60.4%. In the case of `S=C(NCCc1ccccc1)NCCc1ccccc1`, the activity score is reported as active: -215%. In the case of `Cc1ccc(N(C(=O)c2sc(C)nc2C)C(C(=O)NC(C)(C)C)c2ccncc2)cc1` (configuration not stated), the activity score is reported as inconclusive: -44.3%. In the case of `CCOc1ccc(-c2cc(C(=O)NCC3CCCO3)c3ccccc3n2)cc1` (configuration not stated), the activity score is reported as inconclusive: -57.5%. With `CCCCNC(=O)c1ccc(Cn2c(=S)[nH]c3c([nH]c4ccc(OC)cc43)c2=O)cc1` the activity score was inactive: 105%. In the case of `Cc1nc2ccc(C(=O)NCc3ccc4c(c3)OCO4)cc2s1`, the activity score is reported as inconclusive: -42.2%. For `Cc1ccc(C(=O)Nc2ccc3c(c2)OCO3)cc1Cl`, the activity score was active: -123%. With `CC(=O)c1cccc(NC(=S)N2CCc3ccccc32)c1` the activity score was inconclusive: -51.3%. For `O=C(NC(=S)Nc1ccc(N2CCOCC2)c(Cl)c1)c1cccs1`, the activity score was active: -110%. With `O=C(CN1C(=O)S/C(=C\c2ccccc2F)C1=O)Nc1ccccc1O` the activity score was inconclusive: -55.4%. For `CCOC(=O)c1ccc(Nc2nc(C)cc(C)c2C#N)cc1`, the activity score was inconclusive: -54.2%. With `CCOc1c(Br)cc(CNc2ccc3c(c2)OCCO3)cc1OC` the activity score was inactive: 96.8%. In the case of `O=C(Nc1ccc2c(c1)CCCN2C(=O)c1ccco1)c1cc([N+](=O)[O-])ccc1Cl`, the activity score is reported as active: -94%. For `CC(=O)N(/C=C1\SC(=S)N(c2ccccc2)C1=O)c1ccccc1`, the activity score was inconclusive: -52%. For `COc1ccc(N2C(=O)C(Cl)=C(Nc3ccccc3O)C2=O)cc1`, the activity score was inconclusive: -61.4%. In the case of `COc1ccc(NC(=O)CCS(=O)(=O)c2ccccc2)c(OC)c1`, the activity score is reported as inconclusive: -44.5%. For `COC(=O)c1ccc2nc(-c3cccc(N)c3)cn2c1`, the activity score was inactive: 60.9%. With `COc1ccc2c(Cn3cnc4cc([N+](=O)[O-])ccc4c3=O)cc(=O)oc2c1` the activity score was inactive: 72.1%. In the case of `COc1ccc(/C=C/C(=O)Nc2ccc(C34CC5CC(CC(O)(C5)C3)C4)cc2)cc1OC`, the activity score is reported as inactive: 76.5%. With `Cc1ccc(NC2=C(Cl)C(=O)c3ccccc3C2=O)cc1` the activity score was inactive: 60.2%. For `O=Cc1ccc(OCc2cn3ccccc3n2)cc1`, the activity score was inconclusive: -54%. For `COc1nc(NCCN2CCOCC2)nc(Nc2ccc([N+](=O)[O-])cc2)n1`, the activity score was inconclusive: -46.6%. With `Cc1c(Cl)cccc1NC(=S)N=Nc1c(O)n(CN2CCOCC2)c2ccccc12` the activity score was inactive: 64.5%. For `COc1ccccc1Nc1nc(NCCO)nc(N)c1[N+](=O)[O-]`, the activity score was inactive: 61.4%. In the case of `Oc1c(CN2CCCCC2)cc(Br)c2cccnc12`, the activity score is reported as inactive: 112%. For `CC(Cc1ccccn1)NC(=O)c1ccc(OC2CCN(CCc3ccccc3)CC2)cc1` (configuration not stated), the activity score was inconclusive: -59.7%. In the case of `C=CCOc1c(Cl)cc(CNc2ccc(C)c(Cl)c2)cc1OC`, the activity score is reported as inactive: 84.6%. For `O=C(O)Cc1ccc(N=Nc2c(O)c(C(=O)O)cc3ccccc23)cc1`, the activity score was inconclusive: -56.2%. For `Cc1ccc(NC(=O)CCSc2ccccc2)c(C)c1`, the activity score was inconclusive: -46.1%. For `C=CCNC(=O)c1c(Br)cnn1-c1ccc(C)cc1`, the activity score was active: -87.8%. In the case of `Cc1ccccc1OCc1nc2ccccc2c(=O)n1/N=C/c1ccco1`, the activity score is reported as active: -66.4%. With `O=C(COC(=O)c1cccc(Br)c1)Nc1cccc2c1C(=O)c1ccccc1C2=O` the activity score was active: -79%. In the case of `COc1ccc(C(=O)NC(=S)Nc2ccc(CN3CCCCC3)cc2)cc1Cl`, the activity score is reported as inconclusive: -47.4%. In the case of `O=[N+]([O-])c1cc(/C=N/n2c(-c3cccnc3)n[nH]c2=S)ccc1Cl`, the activity score is reported as inconclusive: -55.4%. For `COc1ccc(S(=O)(=O)N2c3ccc(F)cc3CCC2C)cc1` (configuration not stated), the activity score was inactive: 112%. With `COCc1cc(=O)n2c([nH]c3ccccc32)c1C#N` the activity score was inconclusive: -58.8%. For `CN1CCN(c2ccc(NC(=O)COc3ccccc3Cl)cc2)CC1`, the activity score was active: -65.5%. With `CCOC(=O)C1(Cc2cccc(Cl)c2)CCCN(C(=O)c2c(CC)noc2C)C1` (configuration not stated) the activity score was inconclusive: -48.8%. With `CCC(=O)NC(c1ccco1)c1cc(Cl)c2cccnc2c1O` (configuration not stated) the activity score was inactive: 99.8%. In the case of `COc1ccc(Cl)cc1C(=O)Nc1cccnc1Cl`, the activity score is reported as active: -77.7%. For `Oc1ccc(N=Nc2ccc3c(c2)OCCO3)c(O)c1`, the activity score was inactive: 62.1%. With `CCCC[n+]1ccn(C2=C([O-])c3ccccc3C(=O)/C2=N\S(=O)(=O)c2ccc(Cl)cc2)c1` the activity score was inactive: 66%. For `COc1ccc(N=CC2=C(O)c3ccccc3C2=O)c(OC)c1`, the activity score was inactive: 62.5%. With `COc1ccc(NC(=O)c2ccc(COCC(F)(F)C(F)F)cc2)cc1` the activity score was inconclusive: -55.7%.
